Experimental data taken from publication PMC5892938.
This is one part of the list. At the low end of the ranking, values are background and their order means little.

molecular target: GST-SBP-SLBP (stem-loop binding protein) (UniProt Q14493); assay: targeted RNA Bind-n-Seq; details: RBNS binding buffer: 25 mM Tris pH 7.5, 150 mM KCl, 3 mM MgCl2, 0.1% Tween, 0.5 mg/mL BSA, 1 mM DTT; 27 nM protein, 750 pM RNA pool; temperature not stated; high values mean tight binding;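 note: DESeq read counts versus GST-SBP nonspecific binding control pulldown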

Sequence | binding signal (log2 fold change)
GGUCACGUCUCAAUCAACUCAAUUUCAGGAGUUUACUCCUGCUUACUCAACAGCUCGCAGUCAAG | -0.163
GGUCACGUCUCAAUCAACUCAACUCCAGGAGUUUCCUCCUGCAUAUUCAACAGCUCGCAGUCAAG | 0.166
GGUCACGUCUCAAUCAACUCUUCUCCCAGGGAAAGCCCUGGCUUAUUCAACAGCUCGCAGUCAAG | -0.183
GGUCACGUCUCAAUCAACUCUUUCUCAGGAGUUUUCUCCUGUAAUUUCAACAGCUCGCAGUCAAG | -0.152
GGUCACGUCUCAAUCAACUCAUCCUCAGGAGUUUACUCCUGCAAAUUCAACAGCUCGCAGUCAAG | -0.17
GGUCACGUCUCAAUCAACUCUUCGCCCAGGGAAAUCCCUGGUAAUUUCAACAGCUCGCAGUCAAG | 0.181
GGUCACGUCUCAAUCAACUCAAUUUCAGGAGUUUCCUCCUGCUAACUCAACAGCUCGCAGUCAAG | 0.0742
GGUCACGUCUCAAUCAACUCUUCCCCCAGGGAAAGCCCUGGUUAUUUCAACAGCUCGCAGUCAAG | -0.0402
GGUCACGUCUCAAUCAACUCUAUGUCAGGAGUUUACUCCUGCUUUUUCAACAGCUCGCAGUCAAG | 0.151
GGUCACGUCUCAAUCAACUCAUUUUCAGGAGUUUCCUCCUGCUUAUUCAACAGCUCGCAGUCAAG | -0.0374
GGUCACGUCUCAAUCAACUCCAUAGAGGGGGGGAAAACCCCUUUACCCUCCUAAUCAACAGCUCGCAGUCAAG | 0.0187
GGUCACGUCUCAAUCAACUCAUCUUCCAGGGAAACCCCUGGCAAACUCAACAGCUCGCAGUCAAG | 0.173
GGUCACGUCUCAAUCAACUCUUCCCCAGGAGUUUCCUCCUGUUAUUUCAACAGCUCGCAGUCAAG | -0.0522
GGUCACGUCUCAAUCAACUCUAUCUCCAGGGAAAUCCCUGGCUAACUCAACAGCUCGCAGUCAAG | -0.0434
GGUCACGUCUCAAUCAACUCAUUCCCCAGGGAAAUCCCUGGUUUAUUCAACAGCUCGCAGUCAAG | -0.353
GGUCACGUCUCAAUCAACUCCUCAGAGGGGGGGAAAACCCCUUUACCCUCACUUUCAACAGCUCGCAGUCAAG | -0.113
GGUCACGUCUCAAUCAACUCUAACGAGGGGGGGAAAACCCCUUUACCCUCUCCAUCAACAGCUCGCAGUCAAG | -0.271
GGUCACGUCUCAAUCAACUCAACUUCAGGAGUUUCCUCCUGUAUUUUCAACAGCUCGCAGUCAAG | -0.0274
GGUCACGUCUCAAUCAACUCUAUCCCAGGAGUUUUCUCCUGCUAAUUCAACAGCUCGCAGUCAAG | 0.181
GGUCACGUCUCAAUCAACUCUCAAGAGGGGGGGAAAACCCCUUUGCCCUCCGUAUCAACAGCUCGCAGUCAAG | -0.0682
GGUCACGUCUCAAUCAACUCUAUUUCAGGAGUUUCCUCCUGUUUACUCAACAGCUCGCAGUCAAG | -0.062
GGUCACGUCUCAAUCAACUCAAUCUCAGGAGUUUCCUCCUGCAUUUUCAACAGCUCGCAGUCAAG | -0.125
GGUCACGUCUCAAUCAACUCUCAAGAGGGGGGGAAAACCCCUUUGCCCUCAUCCUCAACAGCUCGCAGUCAAG | -0.0803
GGUCACGUCUCAAUCAACUCUAUCCCCAGGGAAACCCCUGGUUUUUUCAACAGCUCGCAGUCAAG | -0.446
GGUCACGUCUCAAUCAACUCCUAAGAGGGGGGGAAAACCCCUUUACCCUCAAUAUCAACAGCUCGCAGUCAAG | -0.334

Sequence | binding signal (log2 fold change)
GGUCACGUCUCAAUCAACUCAUCUUCAGGAGUUUCCUCCUGUAUUCUCAACAGCUCGCAGUCAAG | 0.0242
GGUCACGUCUCAAUCAACUCAUCUCCCAGGGAAAGCCCUGGUAUAUUCAACAGCUCGCAGUCAAG | -0.254
GGUCACGUCUCAAUCAACUCCCAAAGGUUUUUCUUAGAGCCACCCAUCAACAGCUCGCAGUCAAG | 0.293
GGUCACGUCUCAAUCAACUCUAUUUCCAGGGAAAUCCCUGGUAUAUUCAACAGCUCGCAGUCAAG | 0.0946
GGUCACGUCUCAAUCAACUCCCAAGAGGGGGGGAAAACCCCUUUACCCUCGUUAUCAACAGCUCGCAGUCAAG | -0.598
GGUCACGUCUCAAUCAACUCAAUGUCCAGGGAAAUCCCUGGUUUUUUCAACAGCUCGCAGUCAAG | -0.141
GGUCACGUCUCAAUCAACUCUAUUCCCAGGGAAACCCCUGGUUUUCUCAACAGCUCGCAGUCAAG | -0.0262
GGUCACGUCUCAAUCAACUCGUUUUCAGGAGUUUCCUCCUGUAUUUUCAACAGCUCGCAGUCAAG | -0.0502
GGUCACGUCUCAAUCAACUCUUUAGAGGGGGGGAAAACCCCUUUGCCCUCAAUCUCAACAGCUCGCAGUCAAG | -0.195
GGUCACGUCUCAAUCAACUCAAUCUCAGGAGUUUGCUCCUGUAUAUUCAACAGCUCGCAGUCAAG | 0.0629
GGUCACGUCUCAAUCAACUCUUCUUCAGGAGUUUUCUCCUGCAAUUUCAACAGCUCGCAGUCAAG | 0.116
GGUCACGUCUCAAUCAACUCAUUCGCCAGGGAAAUCCCUGGGUAUUUCAACAGCUCGCAGUCAAG | 0.219
GGUCACGUCUCAAUCAACUCUACUCCCAGGGAAAUCCCUGGCUUUUUCAACAGCUCGCAGUCAAG | 0.121
GGUCACGUCUCAAUCAACUCUACUUCCAGGGAAAUCCCUGGUAUUCUCAACAGCUCGCAGUCAAG | -0.00825
GGUCACGUCUCAAUCAACUCAAUUUCAGGAGUUUUCUCCUGCAUAGUCAACAGCUCGCAGUCAAG | 0.00244
GGUCACGUCUCAAUCAACUCAAUUUCAGGAGUUUCCUCCUGUAUACUCAACAGCUCGCAGUCAAG | -0.0953
GGUCACGUCUCAAUCAACUCACUAGAGGGGGGGAAAACCCCUUUGCCCUCCAUAUCAACAGCUCGCAGUCAAG | -0.16
GGUCACGUCUCAAUCAACUCAAUCUCAGGAGUUUCCUCCUGUAUUUUCAACAGCUCGCAGUCAAG | -0.0402
GGUCACGUCUCAAUCAACUCUUUUCCCAGGGAAAACCCUGGCAUAUUCAACAGCUCGCAGUCAAG | 0.281
GGUCACGUCUCAAUCAACUCAAUUUCCAGGGAAAUCCCUGGCUAAUUCAACAGCUCGCAGUCAAG | 0.122
GGUCACGUCUCAAUCAACUCAUUAGAGGGGGGGAAAACCCCUUUGCCCUCAUCCUCAACAGCUCGCAGUCAAG | -0.0248
GGUCACGUCUCAAUCAACUCAAUCUCAGGAGUUUACUCCUGUAUGUUCAACAGCUCGCAGUCAAG | 0.108
GGUCACGUCUCAAUCAACUCAUCUUCCAGGGAAAUCCCUGGCAAAUUCAACAGCUCGCAGUCAAG | 0.00867
GGUCACGUCUCAAUCAACUCUUUCUCAGGAGUUUUCUCCUGCUAUGUCAACAGCUCGCAGUCAAG | 0.213
GGUCACGUCUCAAUCAACUCAUUCGAGGGGGGGAAAACCCCUUUACCCUCAAUCUCAACAGCUCGCAGUCAAG | 0.0563

Sequence | binding signal (log2 fold change)
GGUCACGUCUCAAUCAACUCACAAGAGGGGGGGAAAACCCCUUUACCCUCCGCAUCAACAGCUCGCAGUCAAG | -0.00381
GGUCACGUCUCAAUCAACUCUUUCGAGGGGGGGAAAACCCCUUUACCCUCACUAUCAACAGCUCGCAGUCAAG | 0.237
GGUCACGUCUCAAUCAACUCUUUCCCCAGGGAAAACCCUGGCUUAUUCAACAGCUCGCAGUCAAG | 0.0792
GGUCACGUCUCAAUCAACUCAUUCUCAGGAGUUUCCUCCUGUAUUUUCAACAGCUCGCAGUCAAG | 0.158
GGUCACGUCUCAAUCAACUCUAUUCCAGGAGUUUCCUCCUGCUUUCUCAACAGCUCGCAGUCAAG | 0.0872
GGUCACGUCUCAAUCAACUCUUUUUCCAGGGAAAGCCCUGGUUAAUUCAACAGCUCGCAGUCAAG | 0.0655
GGUCACGUCUCAAUCAACUCUAUUUCCAGGGAAAACCCUGGCAUGUUCAACAGCUCGCAGUCAAG | 0.0671
GGUCACGUCUCAAUCAACUCAACUCCCAGGGAAAUCCCUGGUAUACUCAACAGCUCGCAGUCAAG | -0.129
GGUCACGUCUCAAUCAACUCAUUUUCCAGGGAAAUCCCUGGCAAUCUCAACAGCUCGCAGUCAAG | 0.0561
GGUCACGUCUCAAUCAACUCAUCAGAGGGGGGGAAAACCCCUUUGCCCUCAUAUUCAACAGCUCGCAGUCAAG | -0.364
GGUCACGUCUCAAUCAACUCAUUCCCCAGGGAAAGCCCUGGCAAACUCAACAGCUCGCAGUCAAG | -0.218
GGUCACGUCUCAAUCAACUCUUUUCCAGGAGUUUACUCCUGUUUUCUCAACAGCUCGCAGUCAAG | -0.213
GGUCACGUCUCAAUCAACUCUACUUCAGGAGUUUUCUCCUGUAUAUUCAACAGCUCGCAGUCAAG | 0.0917
GGUCACGUCUCAAUCAACUCAUUCCCAGGAGUUUGCUCCUGUAUUUUCAACAGCUCGCAGUCAAG | 0.0892
GGUCACGUCUCAAUCAACUCUAUUCCCAGGGAAAACCCUGGCUUAUUCAACAGCUCGCAGUCAAG | 0.0509
GGUCACGUCUCAAUCAACUCAUCGCCAGGAGUUUUCUCCUGCAAUUUCAACAGCUCGCAGUCAAG | -0.0266
GGUCACGUCUCAAUCAACUCUAUUUCCAGGGAAAGCCCUGGCUAUUUCAACAGCUCGCAGUCAAG | 0.201
GGUCACGUCUCAAUCAACUCAUCUUCCAGGGAAACCCCUGGUAUUCUCAACAGCUCGCAGUCAAG | 0.243
GGUCACGUCUCAAUCAACUCACUAGAGGGGGGGAAAACCCCUUUACCCUCGAAUUCAACAGCUCGCAGUCAAG | -0.11
GGUCACGUCUCAAUCAACUCUCAAGAGGGGGGGAAAACCCCUUUACCCUCGAUAUCAACAGCUCGCAGUCAAG | 0.131
GGUCACGUCUCAAUCAACUCUUUCUCAGGAGUUUUCUCCUGCUUUCUCAACAGCUCGCAGUCAAG | 0.0772
GGUCACGUCUCAAUCAACUCAUUCCCAGGAGUUUUCUCCUGUAAACUCAACAGCUCGCAGUCAAG | 0.0883
GGUCACGUCUCAAUCAACUCAUCGUCAGGAGUUUUCUCCUGUAUUCUCAACAGCUCGCAGUCAAG | -0.158
GGUCACGUCUCAAUCAACUCAAUUCCAGGAGUUUUCUCCUGCUAAUUCAACAGCUCGCAGUCAAG | 0.0652
